Source: publication PMC5719053
No constants are given. Whether binding was seen depends on the method and setting. Binding seen in cells or lysates may run through a third protein. Some entries that bind do so weakly or less than the wild type. For part of these data: Sequences can lack the tags named with a protein.

Protein sequences, listed by entry. Tags and fused reporters are not part of them.
UniProt O75925: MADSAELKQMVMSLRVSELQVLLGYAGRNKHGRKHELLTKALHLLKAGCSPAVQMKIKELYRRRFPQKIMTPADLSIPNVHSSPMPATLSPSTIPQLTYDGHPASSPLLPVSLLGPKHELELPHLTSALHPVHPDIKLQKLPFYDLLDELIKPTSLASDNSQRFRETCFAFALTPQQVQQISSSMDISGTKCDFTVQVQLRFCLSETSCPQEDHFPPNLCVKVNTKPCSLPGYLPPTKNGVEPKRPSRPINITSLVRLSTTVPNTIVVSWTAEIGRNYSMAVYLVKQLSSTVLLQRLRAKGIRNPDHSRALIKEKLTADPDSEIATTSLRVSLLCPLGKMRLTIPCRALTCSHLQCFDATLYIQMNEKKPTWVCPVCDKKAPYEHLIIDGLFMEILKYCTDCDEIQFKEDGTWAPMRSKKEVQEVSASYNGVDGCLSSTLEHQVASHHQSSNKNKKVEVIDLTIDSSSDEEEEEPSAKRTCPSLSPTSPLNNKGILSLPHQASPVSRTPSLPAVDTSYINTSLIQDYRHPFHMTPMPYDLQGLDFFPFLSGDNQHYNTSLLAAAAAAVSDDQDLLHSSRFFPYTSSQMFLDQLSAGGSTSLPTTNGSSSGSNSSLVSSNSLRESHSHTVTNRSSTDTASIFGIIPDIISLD
UniProt O75928: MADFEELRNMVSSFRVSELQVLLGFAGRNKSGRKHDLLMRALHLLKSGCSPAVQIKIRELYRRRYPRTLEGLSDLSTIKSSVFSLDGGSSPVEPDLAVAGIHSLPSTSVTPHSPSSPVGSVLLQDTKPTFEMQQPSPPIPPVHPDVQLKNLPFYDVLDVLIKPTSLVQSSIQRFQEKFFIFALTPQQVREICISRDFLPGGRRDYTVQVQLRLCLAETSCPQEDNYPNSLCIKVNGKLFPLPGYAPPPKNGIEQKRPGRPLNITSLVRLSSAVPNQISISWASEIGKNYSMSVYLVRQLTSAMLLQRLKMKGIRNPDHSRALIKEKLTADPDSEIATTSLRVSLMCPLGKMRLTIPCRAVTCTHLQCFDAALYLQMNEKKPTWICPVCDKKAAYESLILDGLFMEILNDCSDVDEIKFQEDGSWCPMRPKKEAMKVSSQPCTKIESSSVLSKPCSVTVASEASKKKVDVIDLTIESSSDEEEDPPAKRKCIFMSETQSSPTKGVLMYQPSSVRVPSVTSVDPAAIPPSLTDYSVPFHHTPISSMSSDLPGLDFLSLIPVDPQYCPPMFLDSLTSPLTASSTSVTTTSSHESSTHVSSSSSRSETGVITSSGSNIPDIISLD
UniProt Q99836: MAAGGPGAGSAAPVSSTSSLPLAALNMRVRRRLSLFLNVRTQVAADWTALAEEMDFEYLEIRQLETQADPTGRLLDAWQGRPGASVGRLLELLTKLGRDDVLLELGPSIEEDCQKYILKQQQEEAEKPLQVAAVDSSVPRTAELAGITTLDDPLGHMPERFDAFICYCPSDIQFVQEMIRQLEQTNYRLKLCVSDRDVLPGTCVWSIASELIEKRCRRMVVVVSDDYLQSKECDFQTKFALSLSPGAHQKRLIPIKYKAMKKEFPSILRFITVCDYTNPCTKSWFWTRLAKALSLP
UniProt Q04206: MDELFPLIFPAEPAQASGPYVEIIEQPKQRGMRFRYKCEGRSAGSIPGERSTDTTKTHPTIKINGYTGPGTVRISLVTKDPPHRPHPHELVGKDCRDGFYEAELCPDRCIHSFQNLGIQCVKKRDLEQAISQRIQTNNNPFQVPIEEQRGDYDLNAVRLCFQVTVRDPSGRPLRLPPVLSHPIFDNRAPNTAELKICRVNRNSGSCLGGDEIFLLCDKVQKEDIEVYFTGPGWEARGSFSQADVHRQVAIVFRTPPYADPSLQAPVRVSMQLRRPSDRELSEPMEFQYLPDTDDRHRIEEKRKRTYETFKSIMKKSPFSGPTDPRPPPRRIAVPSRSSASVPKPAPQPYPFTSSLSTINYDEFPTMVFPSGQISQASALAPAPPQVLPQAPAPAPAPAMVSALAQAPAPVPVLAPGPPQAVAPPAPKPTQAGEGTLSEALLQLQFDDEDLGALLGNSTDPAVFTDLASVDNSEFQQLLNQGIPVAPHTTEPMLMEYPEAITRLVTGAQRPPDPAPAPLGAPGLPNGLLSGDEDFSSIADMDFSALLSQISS
UniProt Q8IUC6: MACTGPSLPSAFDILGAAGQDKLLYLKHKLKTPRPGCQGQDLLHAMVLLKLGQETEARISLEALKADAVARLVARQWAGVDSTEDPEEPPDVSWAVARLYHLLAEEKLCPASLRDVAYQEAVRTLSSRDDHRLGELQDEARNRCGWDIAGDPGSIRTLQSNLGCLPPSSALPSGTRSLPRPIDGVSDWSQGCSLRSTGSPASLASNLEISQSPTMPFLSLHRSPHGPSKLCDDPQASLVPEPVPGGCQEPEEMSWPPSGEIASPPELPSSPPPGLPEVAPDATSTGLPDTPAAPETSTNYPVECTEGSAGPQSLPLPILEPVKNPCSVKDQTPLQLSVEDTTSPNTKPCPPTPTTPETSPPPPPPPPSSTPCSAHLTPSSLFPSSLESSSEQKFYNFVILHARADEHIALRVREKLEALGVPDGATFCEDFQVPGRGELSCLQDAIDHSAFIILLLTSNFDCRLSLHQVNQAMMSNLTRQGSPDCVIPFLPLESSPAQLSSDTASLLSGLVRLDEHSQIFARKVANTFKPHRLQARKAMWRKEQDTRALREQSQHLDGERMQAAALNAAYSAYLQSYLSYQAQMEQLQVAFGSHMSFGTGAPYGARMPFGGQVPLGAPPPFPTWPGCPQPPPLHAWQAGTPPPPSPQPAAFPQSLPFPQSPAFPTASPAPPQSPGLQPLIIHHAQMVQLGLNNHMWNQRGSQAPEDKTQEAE

How the values were obtained:
Experiment in all cases: co-IP; HEK293T cells co-transfected with the tagged expression plasmids; whole-cell extracts in 50 mM Tris pH 7.4, 150 mM NaCl, 1% Nonidet P-40, 0.5% deoxycholate; primary antibody at 4 °C overnight, Protein G Sepharose 4-6 h; western blot with anti-tag mAbs (for bPIAS with bRel: precipitated with anti-Flag, blotted with anti-HA)
[1] = biological target: human PIAS1, full length, Myc-tagged (human) (UniProt O75925)
[2] = biological target: T1, human PIAS4, full length, Myc-tagged (human) (UniProt Q8N2W9)
T1 sequence: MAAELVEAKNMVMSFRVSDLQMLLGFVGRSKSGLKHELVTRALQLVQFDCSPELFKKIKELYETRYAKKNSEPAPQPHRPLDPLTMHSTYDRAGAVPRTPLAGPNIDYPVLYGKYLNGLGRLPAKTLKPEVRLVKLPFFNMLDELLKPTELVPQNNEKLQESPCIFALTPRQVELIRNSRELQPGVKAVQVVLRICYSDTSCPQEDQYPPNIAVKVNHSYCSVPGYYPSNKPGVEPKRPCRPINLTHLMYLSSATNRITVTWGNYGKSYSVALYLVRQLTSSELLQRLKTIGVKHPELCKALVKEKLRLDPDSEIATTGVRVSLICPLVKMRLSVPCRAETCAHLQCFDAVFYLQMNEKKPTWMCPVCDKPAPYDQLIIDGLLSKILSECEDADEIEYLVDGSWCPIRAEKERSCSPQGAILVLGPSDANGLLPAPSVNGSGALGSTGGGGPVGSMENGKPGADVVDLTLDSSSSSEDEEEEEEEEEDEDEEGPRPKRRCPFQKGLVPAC

[3] = biological target: T2, human PIAS3, full length, Myc-tagged (human) (UniProt Q9Y6X2)
T2 sequence: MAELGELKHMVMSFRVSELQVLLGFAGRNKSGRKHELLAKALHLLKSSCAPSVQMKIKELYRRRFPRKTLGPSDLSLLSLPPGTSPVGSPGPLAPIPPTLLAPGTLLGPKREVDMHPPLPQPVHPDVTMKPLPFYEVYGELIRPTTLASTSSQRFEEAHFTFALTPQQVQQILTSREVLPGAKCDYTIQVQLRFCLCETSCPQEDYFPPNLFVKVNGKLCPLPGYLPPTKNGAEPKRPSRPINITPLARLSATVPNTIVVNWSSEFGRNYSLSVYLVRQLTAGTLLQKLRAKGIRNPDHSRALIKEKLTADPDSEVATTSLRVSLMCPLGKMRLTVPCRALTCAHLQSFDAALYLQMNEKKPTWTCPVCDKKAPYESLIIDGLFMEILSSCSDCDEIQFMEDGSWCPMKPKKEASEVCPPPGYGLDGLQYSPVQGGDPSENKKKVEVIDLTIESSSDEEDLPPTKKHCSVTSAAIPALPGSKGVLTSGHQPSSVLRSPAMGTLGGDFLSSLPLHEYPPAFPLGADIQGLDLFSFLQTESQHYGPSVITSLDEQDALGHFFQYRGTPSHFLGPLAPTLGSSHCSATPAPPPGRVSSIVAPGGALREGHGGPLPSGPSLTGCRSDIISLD

[4] = biological target: human PIAS2, full length, Myc-tagged (human) (UniProt O75928)

Row | binding [1] | binding [2] | binding [3] | binding [4] | Substance
1 | binds | binds | binds | no binding | human MyD88, full length, Flag-tagged (from UniProt Q99836 1-296)
2 |  |  | binds |  | human NF-κB p65, full length, Flag-tagged (from UniProt Q04206 1-551)
3 | binds | binds | binds | no binding | human TRIF (TICAM-1), full length, Flag-tagged (from UniProt Q8IUC6 1-712)
